Data reported in the supplement of paper PMC9446081.
The whole screen tested about 39,000 compounds, of which about 220 (0.56%) showed activity. Some of the results follow.

Test system: Escherichia coli K-12 BW25113
Experiment: relative growth (OD600 normalised to plate interquartile mean) (fraction); higher = less growth inhibition, active = 0.2 or less
Conditions: 50 µM; LB; incubation time: overnight (16-24 h)
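Also: static incubation at 37 °C against the wild-type strain, values averaged over two biological replicates.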

SMILES | relative growth
C[C@H](CO)N1C[C@H](C)[C@@H](CN(C)S(=O)(=O)c2cn(C)cn2)Oc2ccc(NC(=O)NC3CCCCC3)cc2CC1=O | inactive: 0.996
COc1ccc(NC(=O)N(C)C[C@@H]2OCc3ccccc3-c3c(n(C)c4ccccc34)C(=O)N([C@H](C)CO)C[C@H]2C)c(OC)c1 | inactive: 1.01
Cc1ccc(S(=O)(=O)Nc2ccc3c(c2)C(=O)N([C@H](C)CO)C[C@H](C)[C@@H](CN(C)C(=O)Nc2ccc(F)cc2)OCCCC[C@H](C)O3)cc1 | inactive: 1.03
CCC(=O)Nc1ccc2c(c1)OC[C@@H](C)N(C(=O)CN1CCOCC1)C[C@H](C)[C@H](OC)CN(C)C2=O | inactive: 0.992
NNC(=O)CCCCCCC(=O)NO | inactive: 1.02
C[C@@H]1CN([C@H](C)CO)C(=O)c2cc(NC(=O)Cc3ccccc3)ccc2O[C@@H](C)CCCCO[C@@H]1CN(C)C(=O)Nc1cccc2ccccc12 | inactive: 0.996
C[C@@H]1CN([C@@H](C)CO)C(=O)Cc2cc(NC(=O)Cn3cnnn3)ccc2O[C@H]1CN(C)Cc1ccc(Cl)c(Cl)c1 | inactive: 1
Nc1[nH]ncc1Cl | inactive: 1.04
CC(C)N1C[C@H](C)[C@@H](CN(C)Cc2ccc(Oc3ccccc3)cc2)Oc2c(NC(=O)c3ccccc3)cccc2C1=O | inactive: 1.03
COc1nonc1NC(C)=O | inactive: 0.938
NCc1nc(-c2ccccc2)no1 | inactive: 0.96
C[C@H]1CCCCO[C@H](CN(C)C(=O)C2CCCCC2)[C@@H](C)CN([C@@H](C)CO)C(=O)c2cc(NC(=O)Cc3ccccc3)ccc2O1 | inactive: 0.992
CNC(=O)Cc1ccccc1 | inactive: 0.999
C[C@@H]1CCCCO[C@@H](CN(C)C(=O)Nc2cccc3ccccc23)[C@@H](C)CN([C@H](C)CO)C(=O)c2cc(NC(=O)Cc3ccccc3)ccc2O1 | inactive: 1.01
COc1ccc(CCNC(=O)c2cc3c(=O)n4cccc(C)c4nc3n(CCCN3CCOCC3)c2=N)cc1 | inactive: 0.918
COc1ccc(NC(=O)N(C)C[C@H]2Oc3c(NC(=O)c4cnccn4)cccc3C(=O)N([C@@H](C)CO)C[C@H]2C)cc1 | inactive: 0.965
C[C@@H]1CN([C@@H](C)CO)S(=O)(=O)c2ccc(C#CC3(O)CCCC3)cc2O[C@@H]1CN(C)C(=O)Nc1ccc(F)cc1 | inactive: 1.01
N[C@@]1(C(=O)O)CS(=O)(=O)[C@H]2[C@H](C(=O)O)[C@H]21 | inactive: 1.01
CN1C(=O)c2cc(NC(=O)Cc3cccs3)ccc2OC[C@@H]2O[C@@H](CC(=O)NCCc3ccncc3)CC[C@@H]21 | inactive: 1.02
Brc1ccc(CSc2c[nH]c3ccccc23)cc1 | inactive: 0.939
COc1ccc(S(=O)(=O)N(C)C[C@@H]2OCCCC[C@H](C)Oc3ccc(NC(=O)c4ccccc4)cc3C(=O)N([C@@H](C)CO)C[C@H]2C)cc1 | inactive: 1.02
Nc1cnc(Cl)nc1N | inactive: 0.996

SMILES | relative growth
CO[C@H]1O[C@H](COC(=O)NCCCCCC(=O)NO)[C@H](OC(=O)Nc2ccccc2)[C@H](OC(=O)Nc2ccccc2)[C@H]1OC(=O)Nc1ccccc1 | inactive: 0.918
Cc1noc(C)c1NC(=O)Nc1ccc2c(c1)C(=O)N([C@@H](C)CO)C[C@@H](C)[C@H](CN(C)C(=O)NC1CCCCC1)OCCCC[C@@H](C)O2 | inactive: 0.985
COc1ccc(NC(=O)N(C)C[C@H]2Oc3c(NC(=O)C4CC4)cccc3C(=O)N([C@H](C)CO)C[C@H]2C)cc1 | inactive: 1.04
C[C@H]1CN([C@@H](C)CO)C(=O)Cc2cc(NS(=O)(=O)c3cn(C)cn3)ccc2O[C@H]1CN(C)C(=O)Nc1ccc(F)cc1 | inactive: 0.985
C[C@H](CO)N1C[C@H](C)[C@H](CN(C)C(=O)Nc2ccc(F)cc2)Oc2ccc(NC(=O)Nc3ccc(C(F)(F)F)cc3)cc2C1=O | inactive: 1
Cc1ccc(S(=O)(=O)N(C)C[C@H]2Oc3c(NC(=O)C4CCOCC4)cccc3C(=O)N([C@H](C)CO)C[C@H]2C)cc1 | inactive: 1.01
C[C@H](CO)N1C[C@H](C)[C@H](CN(C)S(=O)(=O)c2cn(C)cn2)Oc2ccc(NS(=O)(=O)c3ccc(F)cc3)cc2CC1=O | inactive: 1.02
CC(C)=CCCC(C)=CCCC(C)=CCCC(C)=CCCC(C)=CCCC(C)=CCCC(C)=CCCC(C)=CCCC(C)=CCO | inactive: 1.12
N#Cc1ccc(CN)cc1 | inactive: 0.974
COc1ccc(NC(=O)Nc2ccc3c(c2)C(=O)N([C@H](C)CO)C[C@H](C)[C@@H](CN(C)S(C)(=O)=O)O3)cc1 | inactive: 1.01
CCCNC(=O)C[C@H]1CC[C@H]2[C@H](COc3ccc(NC(=O)c4ccc5c(c4)OCO5)cc3C(=O)N2C)O1 | inactive: 0.976
C[C@@H]1CN([C@@H](C)CO)C(=O)c2cccc(NS(=O)(=O)c3ccc(Cl)cc3)c2O[C@H]1CN(C)Cc1ccc(-c2ccccc2)cc1 | inactive: 1.02
C[C@H](CO)N1C[C@H](C)[C@@H](CN(C)C(=O)CCC(F)(F)F)OCCCC[C@H](C)Oc2ccc(NS(=O)(=O)c3cccs3)cc2C1=O | inactive: 0.987
COC(=O)c1cn(C)cn1 | inactive: 0.994
C[C@H](CO)N1C[C@H](C)[C@H](CN(C)Cc2ccccc2)OCc2ccccc2-c2c(n(C)c3ccccc23)C1=O | inactive: 0.985
C[C@H]1CN([C@@H](C)CO)C(=O)c2cc(NC(=O)CCN3CCOCC3)ccc2O[C@H]1CN(C)C(=O)Nc1ccc(F)cc1 | inactive: 1
C[C@@H]1CCCCO[C@H](CN(C)S(=O)(=O)c2ccc(F)cc2)[C@@H](C)CN([C@H](C)CO)C(=O)c2cc(NC(=O)CCCCCC(=O)Nc3ccccc3N)ccc2O1 | inactive: 0.998
COc1ccccc1CNC(=O)C[C@H]1C[C@@H]2c3cc(NC(=O)Nc4ccc(C(F)(F)F)cc4)ccc3O[C@@H]2[C@H](CO)O1 | inactive: 1.03
NC[C@H]1Cc2ccccc2O1 | inactive: 0.981
CC(C)NC(=O)N(C)C[C@H]1OCCCC[C@@H](C)Oc2ccc(NS(=O)(=O)c3cn(C)cn3)cc2C(=O)N([C@@H](C)CO)C[C@H]1C | inactive: 0.991
O=C(C[C@@H]1CC[C@H]2[C@@H](COC[C@@H](O)CN2C(=O)Nc2ccc(C(F)(F)F)cc2)O1)NCCc1ccncc1 | inactive: 0.738
CN1C(=O)CC(c2ccccc2)C1=O (centres undefined) | inactive: 1.05

SMILES | relative growth
COc1ccc(NC(=O)N(C)C[C@H]2OCCCC[C@H](C)Oc3ccc(NC(=O)Cc4ccccc4)cc3C(=O)N([C@H](C)CO)C[C@@H]2C)cc1 | inactive: 1.02
C[C@@H]1CCCCO[C@H](CN(C)S(=O)(=O)c2cn(C)cn2)[C@@H](C)CN([C@H](C)CO)C(=O)c2cc(NC(=O)Nc3cccc4ccccc34)ccc2O1 | inactive: 1.02
Cc1noc(C)c1NC(=O)Nc1ccc2c(c1)C(=O)N([C@@H](C)CO)C[C@@H](C)[C@@H](CN(C)C(=O)Cc1ccccc1)OCCCC[C@@H](C)O2 | inactive: 0.903
C[C@@H]1CN([C@H](C)CO)C(=O)c2cccc(NS(=O)(=O)c3ccccc3)c2O[C@@H]1CN(C)CC1CC1 | inactive: 1.02
N=C(N)SCc1csc(N)n1 | inactive: 0.969
O=[N+]([O-])c1ccc(Oc2ccc(-c3ccccc3)cc2)cc1 | inactive: 1.04
C[C@@H](O)CC1=C[C@H]([C@@H](C)O)OC1=O | inactive: 0.978
CC(C)NC(=O)N(C)C[C@@H]1OCc2cn(nn2)CCCC(=O)N([C@@H](C)CO)C[C@@H]1C | inactive: 1
C[C@@H]1CN([C@H](C)CO)C(=O)c2cc(C#CC3(O)CCCC3)cnc2O[C@@H]1CN(C)C(=O)CN(C)C | inactive: 0.981
C[C@@H]1CCCCO[C@H](CN(C)C(=O)Nc2ccc(C(F)(F)F)cc2)[C@@H](C)CN([C@@H](C)CO)C(=O)c2cc(NC(=O)Nc3ccccc3)ccc2O1 | inactive: 1
COc1ccc(NC(=O)Nc2ccc3c(c2)C(=O)N([C@H](C)CO)C[C@@H](C)[C@H](CN(C)Cc2ccc(C(=O)O)cc2)OCCCC[C@H](C)O3)cc1 | inactive: 0.999
CC(C)NC(=O)NCC[C@@H]1CC[C@H](NC(=O)CN(C)C)[C@H](CO)O1 | inactive: 0.996
O=C(O)c1ccc2c(ccc3nn(-c4ccc(/C=C/c5ccc(-n6nc7ccc8cc(C(=O)O)ccc8c7n6)cc5S(=O)(=O)O)c(S(=O)(=O)O)c4)nc32)c1 | inactive: 1.01
C[C@@H]1CN([C@H](C)CO)C(=O)Cc2cc(NC(=O)Cc3ccccc3)ccc2O[C@@H]1CN(C)S(=O)(=O)c1ccccc1 | inactive: 1.02
CO[C@@H]1CN(C)C(=O)c2cc(NS(=O)(=O)c3ccccc3)ccc2OC[C@H](C)N(C(=O)NC(C)C)C[C@@H]1C | inactive: 0.998
CC(C)(C)[S@](=O)N1Cc2cc(C(=O)N3CCc4ccccc4C3)nc(-c3cccc(-c4cncnc4)c3)c2[C@@H]1CCO | inactive: 0.984
Cc1noc(C)c1S(=O)(=O)Nc1ccc2c(c1)C(=O)N([C@H](C)CO)C[C@@H](C)[C@@H](CN(C)C(=O)Nc1ccc(F)cc1)OCCCC[C@@H](C)O2 | inactive: 1.04
CC(C)NC(=O)N(C)C[C@@H]1Oc2cc(C#Cc3cccc(F)c3)ccc2S(=O)(=O)N([C@H](C)CO)C[C@H]1C | inactive: 0.984
COc1cc2c(cc1OC)[C@]1(Nc3c-2c(-c2ccccc2)nn3-c2ccccc2)C(=O)Nc2ccccc21 | inactive: 0.988
C[C@H]1CN([C@@H](C)CO)S(=O)(=O)c2ccc(C#CC(C)(C)O)cc2O[C@H]1CN(C)C(=O)CN(C)C | inactive: 0.995
